Measurements from PubChem BioAssay AID1508642 (National Center for Advancing Translational Sciences (NCATS), 2021).
Out of some 43,000 compounds screened, about 200 (0.47%) were called active. Not shown: some 12% with an inconclusive outcome. Calls follow the shape of the dose curve; as a rule, active = well fitted cell-killing curve with a large enough effect; inconclusive = small, poorly fitted or top-dose-only effect, or effect the other way; inactive = flat fitted curve, though single readings scatter. The list shows a part of the results.

Assay: Cell viability qHTS assay in S16 Pmp22-F2sN cells; also: nearly all actives have a fitted effect of over 65% in size
Details: S16 Pmp22-F2sN Schwann cells (luciferase reporters placed in the Pmp22 gene) viability, CellTiter-Glo, 24 h; series mostly up to 57.5 µM; activity change, negative = cytotoxicity: at the top concentration
Method in brief: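 S16 Schwann cells carrying the Pmp22-F2sN reporter, seeded in 1536-well format, were exposed to library compounds for 24 h at 37C. Viability was read as CellTiter-Glo luminescence after 15 min at room temperature.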
% is scaled to controls: 0 for no effect and ±100 for the full control effect.

Compound | activity change, negative = cytotoxicity
CC(=O)c1ccc(N2CCN(c3ncnc4onc(-c5ccc(Cl)cc5)c34)CC2)cc1 | inactive: -5.79%
CCCCCn1c(=O)[nH]c2cc(C(=O)N3CCN(c4ccccc4F)CC3)ccc2c1=O | inactive: 1.64%
CCOC(=O)c1cccc(Nc2nc(C(=O)OCC)nc3ccccc23)c1 | inactive: -3.05%
Cc1ccc(NC(=O)c2cc(-c3cccs3)on2)cc1C | inactive: -0.992%
CCN1CCN(CCCNC(=O)c2cnn(-c3ccc(C)cc3)c2C2CCN(C(=O)OC(C)(C)C)CC2)CC1 | inactive: 5%
CCOC(=O)c1[nH]c2ccccc2c1NC(=O)c1ccc(OCC)cc1 | inactive: 3.64%
Cc1ccc(-n2ncc3c(NCCCn4ccnc4)ncnc32)cc1 | inactive: 1.89%
O=C(NC1CC(=O)N(c2ccccc2)C1)c1cc2ccccc2o1 (stereo unspecified) | inactive: -2.28%
O=C(Nc1nnc(S(=O)(=O)N2CCCC2)s1)c1ccc(F)cc1 | inactive: 6.24%
Cc1oc(-c2ccccc2)nc1CNS(=O)(=O)c1ccc(Cl)cc1 | inactive: 2.28%
CCCCOc1ccccc1NC(=O)Cn1c(-c2cncs2)nc2ccccc21 | inactive: 8.99%
Cc1cccc(-c2nc(N3CCN(c4ccc(F)cc4)CC3)c3ccccc3n2)c1 | inactive: 2.27%
CCOC(=O)c1cccc(NC(=O)c2cc3c(=O)n(Cc4cccnc4)ccc3nc2C)c1 | inactive: -1.24%
CN1CCN(Cc2c(O)ccc3cc(-c4ccccc4)c(=O)oc23)CC1 | inactive: 0.85%
CCOc1ccc(-c2cc(C(=O)NCc3ccc(OC)cc3)c3c(-c4ccc(F)cc4)[nH]nc3n2)cc1 | inactive: 3.46%
COc1ccc(C(=O)NCc2ccc3c(c2)CCN3C(=O)c2cccc(C)c2)cc1OC | inactive: -8.09%
O=C(CCn1cccn1)Nc1cccc(C(F)(F)F)c1 | inactive: -1.05%
Cc1ccc(-n2c(=O)c3c(cnn3C)n(CC(=O)Nc3cc(C)ccc3C)c2=O)cc1 | inactive: 16.1%
O=C(CCSCc1cnn(-c2ccccc2)c1-n1cccc1)NCc1ccc(Cl)cc1 | inactive: -14.1%
Cc1ccc(NC(=O)Cn2cc(C(=O)c3cccs3)c3ccccc32)cc1C | inactive: -6.72%
Cc1ccc(C(=O)c2cn(Cc3cccc(F)c3)c3nc(C)ccc3c2=O)cc1 | inactive: 23.2%
Cc1cccc(NS(=O)(=O)c2ccc(Cl)c(C(=O)Nc3ccccc3C)c2)c1 | inactive: 16.3%
CCCN(Cc1cccs1)C(=O)Nc1ccc(Br)c(C)c1 | inactive: -3.03%
COc1ccc(CCNC(=O)CSc2nc3ccccc3nc2Cc2ccc(Cl)cc2)cc1OC | inactive: -4.21%

Compound | activity change, negative = cytotoxicity
Cc1nc2sccn2c(=O)c1S(=O)(=O)N1CCN(c2ccc(F)cc2)CC1 | inactive: 9.29%
COc1ccc(N(C(=O)c2ccc(OC)c(OC)c2)S(=O)(=O)c2ccc(Cl)cc2)cc1 | inactive: -1.41%
Cc1cc(NS(=O)(=O)c2ccc(NC(=O)c3ccccc3C)cc2)nc(C)n1 | inactive: 4.81%
Cc1ccc(C)c(NC(=O)CC2NCCNC2=O)c1 (stereo unspecified) | inactive: 0.167%
CCc1ccc(NCc2cc3cc4c(cc3n(CC(=O)Nc3cccc(OC)c3)c2=O)OCO4)cc1 | inactive: 8.39%
COCCNC(=O)Cn1nc(C)c2c(C)n(-c3ccc(C)cc3)nc2c1=O | inactive: 4.63%
CCc1ccc2ncc3c(-c4ccccc4)nn(-c4ccccc4)c3c2c1 | inactive: 16.7%
CCCC(C(=O)NCc1cccc(Cl)c1)N1Cc2ccccc2C1=O (stereo unspecified) | inactive: -9.43%
Cc1ccn2c(=O)cc(COc3ccc(NC(=O)COc4ccc(Cl)cc4)cc3)nc2c1 | inactive: 1.34%
CCCN(CCC)C(=O)Cn1c(=O)n(-c2cccc(OC)c2)c(=O)c2c3c(sc21)CCCC3 | inactive: 13.6%
Cc1csc2nc(COC(=O)c3cccc(NC(=O)COc4ccc(Cl)cc4)c3)cc(=O)n12 | inactive: 8.82%
O=C(CCCCn1c(=O)c2ccccc2n(Cc2ccccc2Cl)c1=O)NCCc1ccccc1 | inactive: 21.7%
N#Cc1ccccc1Cn1c(=O)n(CCCC(=O)NCc2ccc3c(c2)OCO3)c(=O)c2sccc21 | inactive: 1.26%
Cc1ccc2nc(-c3ccc(Cl)c(NC(=O)COc4cccc(C)c4C)c3)oc2c1 | inactive: 7.1%
Cc1cccc(NC(=O)c2ccc3snnc3c2)c1 | inactive: -4.01%
Cc1cc2c(cc1NS(=O)(=O)c1ccc(F)cc1)n(C)c(=O)c(=O)n2C | inactive: 26.7%
CCc1cccc(C)c1NS(=O)(=O)c1cc2[nH]c(=O)c(=O)[nH]c2cc1C | inactive: 18.6%
CCN(CC)c1ccc(NC(=O)CCS(=O)(=O)c2cc3c(cc2Cl)NC(=O)CO3)c(C)c1 | inactive: 13.3%
CCCc1cc(=O)[nH]c2nnc(SC(C)CC)n12 (stereo unspecified) | inactive: 0.704%
CCOC(=O)c1sc(NC(=O)/C=C/c2ccc(C(C)C)cc2)c(C(=O)OCC)c1C | inactive: 27.1%
COc1cccc(CNC(=O)CCc2c(C)nc3c(c(C)nn3-c3ccc(C)c(C)c3)c2C)c1 | inactive: 2.25%
Cc1nc2c(-c3ccccc3)c(C)nn2c(C)c1CCC(=O)N1CCN(c2ccc(F)cc2)CC1 | inactive: 15.6%
Cc1c(Cl)cccc1NC(=O)COCc1cc(-c2ccc3c(c2)OCO3)on1 | inactive: 0.65%
CSc1ccc(CCNC(=O)c2ccc(-c3nc(COc4ccccc4)c(C)o3)cc2)cc1 | inactive: 4.6%

Compound | activity change, negative = cytotoxicity
Cc1cccc(N2CCN(CCCNc3ncnc4onc(-c5ccc(Cl)cc5)c34)CC2C)c1 (stereo unspecified) | inactive: 3.6%
COc1ccc(Cl)cc1N(C)C(=O)c1ccc2c(=O)n3c(nc2c1)CCCCC3 | inactive: 18.7%
COc1ccc(NC(=O)Cn2c(=O)n(CCC(=O)NCc3ccccc3OC)c(=O)c3ccccc32)cc1Cl | inactive: 8.32%
Cc1ccc(Cn2ccn(Cc3ccccc3F)c(=O)c2=O)cc1 | inactive: 3.34%
COc1ccc(CCNC(=O)CCn2c(=O)c3ccccc3n(Cc3cc(C)ccc3C)c2=O)cc1OC | inactive: -14.2%
COc1ccc(N2CC(NC(=O)/C=C\c3ccccc3)CC2=O)cc1 (stereo unspecified) | inactive: -0.187%
O=C(Cn1c(SCCOc2ccccc2)nc2ccccc21)N1CCOCC1 | inactive: -4.02%
CC(=O)N1CCc2cc(CNC(=O)Cc3ccc(F)cc3)ccc21 | inactive: 5.46%
CCOc1ccccc1CNC(=O)C1CCN(C(=O)N2CC(CC)Oc3ccc(C)cc32)CC1 (stereo unspecified) | inactive: -15.9%
O=C(/C=C/c1ccccc1)N1CCN(Cc2cc(=O)n3nc(-c4ccccc4F)sc3n2)CC1 | inactive: 18%
Cc1cc(OCCn2cc(C(=O)c3cccs3)c3ccccc32)ccc1Cl | inactive: 13.5%
Cn1ncc2c(N3CCN(c4cccc(Cl)c4)CC3)ncnc21 | inactive: 0.417%
CCOC(=O)N1CCc2c(sc(NCc3sccc3C)c2C(=O)Nc2ccc(OC)cc2OC)C1 | inactive: 11.2%
Cc1cc(C)cc(NC(=O)C(Cc2ccccc2)NS(=O)(=O)c2ccc3c(c2)c(=O)n(C)c(=O)n3C)c1 (stereo unspecified) | inactive: 18.2%
CCOc1ccc(Oc2nc(NCC(C)C)nc(N3CCOCC3)n2)nn1 | inactive: 0.41%
CCCCOC(=O)c1ccc(NC(=O)c2cc3c(=O)n4cccc(C)c4nc3s2)cc1 | inactive: 15.1%
Cc1c(C(=O)NCC(c2ccc(Cl)cc2)N2CCOCC2)oc2ccccc12 (stereo unspecified) | inactive: 2.82%
CCCCN(C)CCNC(=O)c1c2c(nc3ccccc13)C(=O)N(C1CCCCC1)C2 | inactive: 8.32%
CCCNC(=O)CCc1nnc2ccc(N3CCN(c4cccc(OC)c4)CC3)nn12 | inactive: 20.9%
Cc1cc(Cl)ccc1OCc1nc(-c2ccc(-n3cccc3)cc2)no1 | inactive: -13.3%
Cc1ccc(NC(=O)CCn2c(=O)c3cccn3c3ccccc32)cc1C | inactive: -18.6%
Cc1ccc(-n2c(=O)c3cccnc3n2CC(=O)Nc2ccc(Br)cc2)cc1C | inactive: 11.6%
CCC(=O)N1CCc2cc(Br)cc(S(=O)(=O)CCC(=O)NCCc3cccc(C)c3)c21 | inactive: 6.4%
Cc1ccc2c(=O)cc(C(=O)Nc3nc4ccc(Cl)cc4s3)oc2c1C | inactive: 5.13%

Compound | activity change, negative = cytotoxicity
COc1cccc(-c2ncnn2-c2sc3c(c2C#N)CCCCC3)c1OC | inactive: 8.32%
CCN(C(=O)CSc1nc2ncccc2[nH]1)c1ccc(C(C)C)cc1 | inactive: -2.58%
O=C(COc1ccc(Cl)cc1)Nc1nnc(S(=O)(=O)N2CCc3ccccc32)s1 | inactive: -0.0844%
Cc1ccc(CN(C(=O)COc2ccc([N+](=O)[O-])cc2)c2ccccn2)cc1 | inactive: -3.44%
CCN(CC)CCCNC(=O)c1cnc(SC)nc1-c1ccccc1 | inactive: 28.4%
CCN(CC)CCCNC(=O)c1cn(C)c2ccc(S(=O)(=O)N(C)C3CCCCC3)cc2c1=O | inactive: -2.13%
CCOC(=O)c1c(C)[nH]c(C)c1S(=O)(=O)N(C)CC(=O)N1CCN(c2ccccc2)CC1 | inactive: -14.8%
COc1ccc(CNc2nc3c(-c4cccc(C)c4)nnn3c3ccccc23)cc1 | inactive: 14.2%
Cc1nn(CC(=O)N2CCC(C)CC2)c(=O)c2cc3sccc3n12 | inactive: 12.2%
Cc1ccccc1CN1C(=O)c2ccccc2S(=O)c2ccc(C(=O)NC3CCC(C)CC3)cc21 (stereo unspecified) | inactive: -21.4%
CC(=O)N1c2c(cc(Br)cc2S(=O)(=O)N2CCN(c3cc(C)ccc3C)CC2)CC1C (stereo unspecified) | inactive: 7.92%
Cc1ccc(S(=O)(=O)c2nnn3c2nc(N2CCCC2)c2sccc23)cc1C | inactive: 9.54%
Cc1ccc(S(=O)(=O)c2nnn3c2nc(N2CCN(c4ccccc4F)CC2)c2cc(Cl)ccc23)cc1C | inactive: 9.29%
O=C(c1ccc2c(c1)N(Cc1cccc(F)c1)C(=O)c1ccccc1S2)N1CCOCC1 | inactive: -9.17%
COc1ccc(OC)c(NC(=O)C2=C(C)C(=O)OC23CCCCCC3)c1 | inactive: -4.47%
CC1=C(C#N)C(NC(=O)c2ccccc2Cl)(C(F)(F)F)C(=O)N1 (stereo unspecified) | inactive: -4.32%
CCc1ccc(NC(=O)c2sc3nc(C)c(Cl)c(C)c3c2NC(=O)c2ccccc2OC)cc1 | inactive: -0.175%
O=C1CS(=O)(=O)C2(C(=O)N(Cc3ccccc3)c3ccccc32)N1c1ccccc1 (stereo unspecified) | inactive: 3.91%
Cc1ccc(CCNC(=O)c2ccc3c(c2)nc2n3CCC(C)C2)cc1 (stereo unspecified) | inactive: 3.19%
COc1cc2c(cc1OC)C(COc1ccccc1OC)N(C(=O)COc1ccc(Cl)cc1)CC2 (stereo unspecified) | inactive: -4.53%
O=C(C1CCN(c2ncnc3c2nc2n3CCCCC2)CC1)N1CCN(c2cccc(Cl)c2)CC1 | inactive: -27.6%
COc1ccc(OC)c(CNC(=O)Cc2ccc(NC(=O)N3CCSc4ncccc43)cc2)c1 | inactive: -1.86%
CCOC(=O)C1(C)C=C(Nc2cccc(C(=O)O)c2)C(=O)N1c1cccc(C(=O)O)c1 (stereo unspecified) | inactive: 0.774%
COc1ccc(-c2noc(-c3ccc(N4CCN(c5ccccc5)CC4)c([N+](=O)[O-])c3)n2)cc1OC | inactive: -1.8%
